# Data published in PubChem BioAssay (Tox21).
# Several values for one entry are separate records, joined by “and”; a condition that tells them apart may be missing. Identical values can stand only once. The entries are a selection whose mix differs from that of the whole data set. Results filed as inconclusive are left out. Activity calls are given as the source filed them. Unless noted, calls follow the shape of the full dose curve.
# Columns and labels:
# [1] = target: Acetylcholinesterase (Homo sapiens) (UniProt P22303); experiment: Acetylcholinesterase (AChE) small molecule antagonists: colormetric cell-based qHTS assay (AID 1347395); settings: SH-SY5Y cells AChE activity, colorimetric (Ellman); also: nearly all actives have a fitted effect of over 30% in size
# In short: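 In this cell-based qHTS, attached SH-SY5Y cells were treated with test chemicals for 30 min, after which acetylthiocholine hydrolysis was followed by DTNB colour development over 90 min at 37 C.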
# [2] = target: Acetylcholinesterase (Homo sapiens) (UniProt P22303); experiment: Acetylcholinesterase (AChE) small molecule antagonists: enzyme-based qHTS assay (AID 1347397); settings: AChE enzyme activity inhibition; also: nearly all actives have a fitted effect of over 55% in size
# In short: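 Tox21 library chemicals are tested in qHTS format against recombinant human AChE. The enzyme, dispensed at 50 mU/mL, sits with compound for 30 min at room temperature. A DTNB–acetylthiocholine cocktail follows, and colour is read after 10 min.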
# [3] = target: Acetylcholinesterase (Homo sapiens) (UniProt P22303); experiment: Acetylcholinesterase (AChE) small molecule antagonists: fluorescence cell-based qHTS assay (AID 1347398); settings: SH-SY5Y cells, AChE activity; also: nearly all actives have a fitted effect of over 50% in size
# Source text: (§1) National Center for Advancing Translational Sciences [NCATS]
# Division of Preclinical Innovation [DPI]
# (§2) U.S. Environmental Protection Agency [EPA]
# (§3) National Institutes of Environmental Health Sciences [NIEHS]
# (§4) National Toxicology Program [NTP]
# (§5) U.S. Food and Drug Administration [FDA]
# Acetylcholinesterase (AChE) is the primary cholinesterase in the body that hydrolyzes a key neurotransmitter, acetylcholine. Inhibition of AChE activity can lead to neurotoxicity. Known inhibitors of AChE include organophosphorous pesticides (OP), chemical warfare agents, drugs, and various phytochemicals.
# A homogenous cell-based assay using Amplitetrade mark Fluorimetric Acetylcholinesterase Assay Kit *Green Fluorescence* (AAT Bioquest, Sunnyvale, CA) was used to evaluate the chemicals in the Tox21 10K library that inhibit AChE activity. The assay uses Thiolite Green to quantify the thiocholine produced from the hydrolysis of acetylthiocholine by AChE from the SH-SY5Y cells. […] The fluorescence intensity of Thiolite Green is used to measure AChE activity. Its signal can be easily read by a fluorescence microplate reader at Ex/Em = 490/520 nm. […]
# For cell-based AChE assay, 2,000 SH-SY5Y cells in 4 uL/well were dispensed into black, clear-bottom 1536-well plates using a Multidrop Combi (Thermo Scientific) dispenser. […] Fluorescent intensity (Ex/Em = 490/520 nm) was measured using an Envision plate reader (PerkinElmer, MA).
# [4] = target: Voltage-gated inwardly rectifying potassium channel KCNH2 (Homo sapiens) (UniProt Q12809); experiment: Human Ether-a-go-go-Related Gene (hERG) channel small molecule antagonists: fluorescence cell-based qHTS assay (AID 1671200; active = well fitted curve in the direction sought with a large enough effect in the repeat runs; an effect the other way counts as inactive or inconclusive; also: nearly all actives have a fitted effect of over 50% in size); settings: hERG-U2OS cells, FluxOR thallium flux fluorescence
# In short: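 Cell line hERG-U2OS; dye FluxOR II, 1 h RT dark; Tl+ stimulus; ex 480/em 540 nm, read each second for 2 min.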
# [5] = target: Cytochrome P450 2C19 (Homo sapiens) (UniProt P33261); experiment: Cytochrome P450 Family 2 Subfamily C Member 19 (CYP2C19) small molecule antagonists: luciferase reporter qHTS assay (AID 1671197; active = well fitted curve in the direction sought with a large enough effect in the repeat runs; an effect the other way counts as inactive or inconclusive; also: nearly all actives have a fitted effect of over 65% in size); settings: P450-Glo CYP2C19 enzyme, luciferin luminescence, 1 h
# Source text: as §1, §2, §3, §4, §5
# Cytochrome P450 (CYP) enzymes are membrane-bound hemeproteins that play a key role in metabolism of drugs and xenobiotics. Evaluation of the effect of chemicals on CYP isozymes is useful to minimize the adverse drug reactions and toxicities in drug development process. Tox21 chemicals were tested for their effect on CYP enzyme activities by using P450-Glo (TM) screening systems (Promega Corporation, Madison, WI). […] The luciferin products formed are detected with a luciferin detection reagent, and the amount of light produced is proportional to CYP activity. […]
# Two ul of enzyme-substrate mix was dispensed into medium binding white/solid 1536-well plates (Greiner Bio-One North America Inc., Monroe, NC) using a BioRaptr Flying Reagent Dispenser (FRD, Beckman Coulter, Brea, CA). […] The reaction was stopped by adding 4 ul of detection reagent using an FRD and after 20 min incubation at room temperature the luminescence signal was measured using a ViewLux plate reader (Perkin Elmer, Shelton, CT). Data were expressed as relative luminescence units.
# [6] = target: Cytochrome P450 2C9 (Homo sapiens) (UniProt P11712); experiment: Cytochrome P450 Family 2 Subfamily C Member 9 (CYP2C9) small molecule antagonists: luciferase reporter qHTS assay (AID 1671198; active = well fitted curve in the direction sought with a large enough effect in the repeat runs; an effect the other way counts as inactive or inconclusive; also: nearly all actives have a fitted effect of over 50% in size); settings: P450-Glo CYP2C9 enzyme assay, luciferin luminescence
# In short: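 CYP2C9 activity was measured with a P450-Glo proluciferin substrate. Enzyme–substrate mix was held with compound for 10 min at room temperature, then NADPH regeneration solution was added for 1 h at 37C. Luciferin product was read as luminescence.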
# [7] = target: Cytochrome P450 1A2 (Homo sapiens) (UniProt P05177); experiment: Cytochrome P450 Family 1 Subfamily A Member 2 (CYP1A2) small molecule antagonists: luciferase reporter qHTS assay (AID 1671199; active = well fitted curve in the direction sought with a large enough effect in the repeat runs; an effect the other way counts as inactive or inconclusive; also: nearly all actives have a fitted effect of over 50% in size); settings: P450-Glo CYP1A2 enzyme, luciferin luminescence, 1 h
# In short: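 Read-out is luminescence from luciferin detection reagent (20 min) proportional to CYP1A2 activity; compounds in DMSO preincubated 10 min with enzyme and proluciferin substrate, then NADPH regeneration solution, 1 h, room temperature.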
# Potency is read from the fitted curve at half-maximal effect.
# UniProt Q12809, sequence (Q12809 whole entry, looked up): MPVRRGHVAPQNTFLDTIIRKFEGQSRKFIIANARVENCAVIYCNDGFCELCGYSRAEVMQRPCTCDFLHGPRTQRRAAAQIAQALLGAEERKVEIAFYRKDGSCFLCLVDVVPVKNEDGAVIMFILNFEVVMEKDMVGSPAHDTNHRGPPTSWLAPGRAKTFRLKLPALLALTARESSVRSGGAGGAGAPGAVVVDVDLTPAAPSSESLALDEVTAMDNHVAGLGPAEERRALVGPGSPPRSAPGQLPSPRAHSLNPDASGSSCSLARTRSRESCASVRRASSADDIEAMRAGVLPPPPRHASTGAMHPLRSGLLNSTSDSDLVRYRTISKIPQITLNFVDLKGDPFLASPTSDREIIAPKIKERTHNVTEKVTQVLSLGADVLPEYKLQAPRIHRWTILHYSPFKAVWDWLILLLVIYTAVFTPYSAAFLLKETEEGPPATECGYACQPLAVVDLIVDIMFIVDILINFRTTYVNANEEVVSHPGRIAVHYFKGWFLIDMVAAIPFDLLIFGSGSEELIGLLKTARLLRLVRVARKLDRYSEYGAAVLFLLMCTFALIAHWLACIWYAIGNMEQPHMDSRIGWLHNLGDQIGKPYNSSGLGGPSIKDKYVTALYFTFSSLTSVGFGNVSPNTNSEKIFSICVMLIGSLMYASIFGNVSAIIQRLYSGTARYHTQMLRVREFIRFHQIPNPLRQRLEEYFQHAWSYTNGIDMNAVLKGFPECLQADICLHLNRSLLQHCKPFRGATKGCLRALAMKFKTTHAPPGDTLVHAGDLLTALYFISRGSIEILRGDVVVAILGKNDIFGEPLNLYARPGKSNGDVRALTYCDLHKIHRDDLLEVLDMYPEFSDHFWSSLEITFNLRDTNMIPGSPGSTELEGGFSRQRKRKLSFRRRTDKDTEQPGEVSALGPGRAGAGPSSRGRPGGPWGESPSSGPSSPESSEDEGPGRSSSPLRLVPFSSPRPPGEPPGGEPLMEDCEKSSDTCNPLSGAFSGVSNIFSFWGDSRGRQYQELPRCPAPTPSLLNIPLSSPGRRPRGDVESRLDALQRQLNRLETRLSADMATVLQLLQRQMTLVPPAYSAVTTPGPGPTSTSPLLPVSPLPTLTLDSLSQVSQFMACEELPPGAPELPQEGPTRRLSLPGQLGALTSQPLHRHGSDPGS
# UniProt P22303, sequence (P22303 whole entry, looked up): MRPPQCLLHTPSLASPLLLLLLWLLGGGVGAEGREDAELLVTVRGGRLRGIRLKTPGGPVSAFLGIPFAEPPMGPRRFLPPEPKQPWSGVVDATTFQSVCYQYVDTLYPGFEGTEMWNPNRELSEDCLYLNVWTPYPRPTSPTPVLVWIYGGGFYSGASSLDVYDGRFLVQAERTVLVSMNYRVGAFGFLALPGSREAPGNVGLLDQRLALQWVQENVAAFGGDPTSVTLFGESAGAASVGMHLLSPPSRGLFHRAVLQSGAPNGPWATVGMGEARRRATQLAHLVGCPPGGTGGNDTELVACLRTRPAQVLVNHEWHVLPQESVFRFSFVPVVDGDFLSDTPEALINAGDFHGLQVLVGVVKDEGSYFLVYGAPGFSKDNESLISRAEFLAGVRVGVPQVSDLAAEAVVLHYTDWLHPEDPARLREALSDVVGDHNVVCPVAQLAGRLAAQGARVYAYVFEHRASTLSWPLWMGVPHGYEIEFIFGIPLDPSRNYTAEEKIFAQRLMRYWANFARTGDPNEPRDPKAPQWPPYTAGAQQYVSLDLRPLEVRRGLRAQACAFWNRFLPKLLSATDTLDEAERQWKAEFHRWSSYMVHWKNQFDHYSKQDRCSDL
# UniProt P33261, sequence (P33261 whole entry, looked up): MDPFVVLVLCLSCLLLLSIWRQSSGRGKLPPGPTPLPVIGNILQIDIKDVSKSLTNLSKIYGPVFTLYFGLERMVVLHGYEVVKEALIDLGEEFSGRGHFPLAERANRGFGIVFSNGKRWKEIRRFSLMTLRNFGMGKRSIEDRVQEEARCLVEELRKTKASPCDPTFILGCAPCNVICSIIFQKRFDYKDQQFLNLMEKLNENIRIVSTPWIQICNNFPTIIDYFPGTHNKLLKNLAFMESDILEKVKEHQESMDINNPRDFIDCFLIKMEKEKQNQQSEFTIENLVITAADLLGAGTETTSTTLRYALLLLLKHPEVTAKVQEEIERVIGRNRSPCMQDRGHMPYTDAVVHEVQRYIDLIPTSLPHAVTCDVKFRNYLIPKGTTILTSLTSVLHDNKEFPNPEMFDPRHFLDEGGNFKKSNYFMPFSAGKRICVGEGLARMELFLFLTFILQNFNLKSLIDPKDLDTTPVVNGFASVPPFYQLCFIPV
# UniProt P11712, sequence (P11712 whole entry, looked up): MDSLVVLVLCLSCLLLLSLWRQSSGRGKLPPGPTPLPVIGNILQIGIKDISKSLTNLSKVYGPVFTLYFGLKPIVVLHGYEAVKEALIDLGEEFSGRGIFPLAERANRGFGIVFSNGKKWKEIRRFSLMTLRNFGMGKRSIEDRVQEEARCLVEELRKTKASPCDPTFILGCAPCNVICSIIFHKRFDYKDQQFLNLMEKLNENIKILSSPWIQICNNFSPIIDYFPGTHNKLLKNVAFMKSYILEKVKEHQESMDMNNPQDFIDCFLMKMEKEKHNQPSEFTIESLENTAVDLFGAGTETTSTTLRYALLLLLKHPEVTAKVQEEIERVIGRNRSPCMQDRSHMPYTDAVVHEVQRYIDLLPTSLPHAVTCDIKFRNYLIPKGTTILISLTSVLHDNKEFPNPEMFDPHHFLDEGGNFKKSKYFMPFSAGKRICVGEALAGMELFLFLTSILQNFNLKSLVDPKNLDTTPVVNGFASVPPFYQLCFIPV
# UniProt P05177, sequence (P05177 whole entry, looked up): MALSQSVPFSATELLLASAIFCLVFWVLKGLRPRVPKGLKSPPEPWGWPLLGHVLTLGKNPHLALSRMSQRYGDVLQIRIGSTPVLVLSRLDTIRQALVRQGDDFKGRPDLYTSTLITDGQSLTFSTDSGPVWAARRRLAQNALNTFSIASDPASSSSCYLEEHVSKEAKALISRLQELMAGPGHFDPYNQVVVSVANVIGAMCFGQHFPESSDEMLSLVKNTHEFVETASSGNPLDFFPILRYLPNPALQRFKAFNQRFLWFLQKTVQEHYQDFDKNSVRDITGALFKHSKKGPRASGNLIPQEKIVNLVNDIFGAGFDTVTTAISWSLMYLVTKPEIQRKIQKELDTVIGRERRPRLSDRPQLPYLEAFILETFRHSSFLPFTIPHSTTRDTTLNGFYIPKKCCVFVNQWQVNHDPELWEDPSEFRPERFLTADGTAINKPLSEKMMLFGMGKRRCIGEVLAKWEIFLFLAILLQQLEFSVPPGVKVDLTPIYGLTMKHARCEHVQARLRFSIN
compound,measurement,setting,value
CCCCCCCCCCCCCCCC[n+]1ccccc1,Potency,[1],active: 74.3 µM and active: 71 µM and active: 78.6 µM
same,Potency,[2],active: 35.6 µM [middle of 4 runs]
same,Potency,[3],active: 27.5 µM [middle of 4 runs]
same,Potency,[4],active: 9.12 µM and active: 21.9 µM and active: 6.82 µM
Clc1ccc(CO/N=C(\Cn2ccnc2)c2ccc(Cl)cc2Cl)c(Cl)c1,Potency,[5],active: 19.5 nM
same,Potency,[6],active: 490 nM
Clc1ccc(CSC(Cn2ccnc2)c2ccc(Cl)cc2Cl)cc1 (centres undefined),Potency,[5],active: 174 nM
same,Potency,[6],active: 436 nM
same,Potency,[7],active: 6920 nM
same,Potency,[4],active: 8.49 µM
COC12CC[C@@]3(C[C@@H]1C(C)(O)C(C)(C)C)[C@H]1Cc4ccc(O)c5c4[C@@]3(CCN1CC1CC1)[C@H]2O5 (some centres undefined),Potency,[4],active: 27.4 µM
CC(C)(C)CC(C)(C)c1ccc(OCCOCC[N+](C)(C)Cc2ccccc2)cc1,Potency,[1],active: 35.5 µM and active: 17.4 µM
same,Potency,[2],active: 25.2 µM and active: 27.5 µM
same,Potency,[3],active: 5.02 µM and active: 3.47 µM
